In a collection of fitness landscapes (doi:10.1016/j.celrep.2020.107928):
The full ranking holds about 81,000 sequences; the median of “one-hybrid fitness for binding NBS DNA” is about -0.1, and the highest 2% start at about 0.36. This is one part of the list.

B1: Caulobacter ParB omega fusion; a variant is named by its letters at X, in order, B8GW30 (parent)
chain: MESVVVGEPGMSEGRRGLGRGLSALLGEVDAAPAQAPGEQLGGSREAPIEILQRNPDQPRRTFREEDLEDLSNSIREKGVLQPILVRPSPDTAGEYQIVAGERAWRAAQRAGLKTVPIMVRELDDLAVLEIGIIENVQRADLNVLEEALSYKVLMEKFERTQENIAQTIGKSXSHVANXMRLLXLPDEVQSYLVSGELTAXHARAIAAAADPVALAKQIIEGGLSVRETEALARKAPNLSAGKSKGGRPPRVKDTDTQALESDLSSVLGLDVSIDHRGSTGTLTITYATLEQLDDLCNRLTRGI

Variants of: B1
Assay: one-hybrid fitness for binding NBS DNA (the Noc-binding site; scaled: cognate 1, non-cognate 0); higher = stronger binding
Settings: with NBS DNA site
Summary of the method: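 Bacterial one-hybrid selection in E. coli USO rpoZ- hisB- pyrF- with a HIS3 reporter carrying the site 19 bp from the promoter, screening Caulobacter ParB libraries with four specificity codons randomised (NNS). Cells grew 48 hours at 37°C on M9-minus-histidine plus 0.1 mM IPTG and 5 mM 3-AT. Plasmids before and after selection were Illumina-sequenced, three replicate libraries pooled, and variants under 10 reads dropped. Fitness is the log change in variant-to-wild-type read ratio, rescaled to cognate 1, non-cognate 0.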

Row | Variant | one-hybrid fitness for binding NBS DNA
1 | VESC | ≤ 0.2
2 | ITVA | ≤ 0.2
3 | RVQH | ≤ 0.2
4 | QHGF | ≤ 0.2
5 | SPVD | ≤ 0.2
6 | LQGK | ≤ 0.2
7 | PVCY | ≤ 0.2
8 | QMKF | 0.3
9 | SPKH | ≤ 0.2
10 | GPPM | ≤ 0.2
11 | QMLH | ≤ 0.2
12 | QYTA | 0.251
13 | IIIV | ≤ 0.2
14 | GSPQ | ≤ 0.2
15 | WTKS | ≤ 0.2
16 | LYSF | ≤ 0.2
17 | TYYR | ≤ 0.2
18 | MGRM | ≤ 0.2
19 | EHHG | ≤ 0.2
20 | KVIC | ≤ 0.2
21 | YGGG | ≤ 0.2
22 | VSAG | ≤ 0.2
23 | FLGP | ≤ 0.2
24 | LPYE | ≤ 0.2

Row | Variant | one-hybrid fitness for binding NBS DNA
25 | VITV | ≤ 0.2
26 | LCIK | ≤ 0.2
27 | RYVN | ≤ 0.2
28 | HSMK | ≤ 0.2
29 | LTCL | ≤ 0.2
30 | VSVC | ≤ 0.2
31 | QSLM | ≤ 0.2
32 | KLQL | ≤ 0.2
33 | ESYV | ≤ 0.2
34 | VPVM | ≤ 0.2
35 | QGSC | ≤ 0.2
36 | GVYT | ≤ 0.2
37 | ALMN | ≤ 0.2
38 | QNSV | ≤ 0.2
39 | VSFA | ≤ 0.2
40 | RHGD | ≤ 0.2
41 | RAQN | ≤ 0.2
42 | NVSG | ≤ 0.2
43 | LVSW | ≤ 0.2
44 | ANDP | ≤ 0.2
45 | ANNK | ≤ 0.2
46 | ASSR | ≤ 0.2
47 | GPLN | ≤ 0.2
48 | KMGG | ≤ 0.2

Row | Variant | one-hybrid fitness for binding NBS DNA
49 | NQHH | ≤ 0.2
50 | RHFY | ≤ 0.2
51 | GPRT | 0.369
52 | RCLW | ≤ 0.2
53 | YDYS | ≤ 0.2
54 | NSYW | ≤ 0.2
55 | IDYG | ≤ 0.2
56 | SGKL | ≤ 0.2
57 | DPEY | ≤ 0.2
58 | VNHC | ≤ 0.2
59 | AERH | ≤ 0.2
60 | HPYE | ≤ 0.2
61 | LLIC | ≤ 0.2
62 | YVSL | ≤ 0.2
63 | AHNI | ≤ 0.2
64 | THAP | ≤ 0.2
65 | YNPM | ≤ 0.2
66 | LDCA | ≤ 0.2
67 | HCST | ≤ 0.2
68 | QSRS | 0.64
69 | SGHY | ≤ 0.2
70 | THAG | ≤ 0.2
71 | WCNF | ≤ 0.2
72 | VMKT | ≤ 0.2

Row | Variant | one-hybrid fitness for binding NBS DNA
73 | SLQW | ≤ 0.2
74 | AHGG | ≤ 0.2
75 | NANG | ≤ 0.2
76 | YESW | ≤ 0.2
77 | SGEM | ≤ 0.2
78 | CCMC | ≤ 0.2
79 | QHPS | ≤ 0.2
80 | PGAI | ≤ 0.2
81 | RRRS | 0.74
82 | PNKE | ≤ 0.2
83 | SQAR | ≤ 0.2
84 | QRFS | 0.597
85 | CERT | ≤ 0.2
86 | LYRF | ≤ 0.2
87 | KVPK | ≤ 0.2
88 | PRGY | ≤ 0.2
89 | SCPW | ≤ 0.2
90 | RWKC | ≤ 0.2
91 | WRWI | ≤ 0.2
92 | HYTH | ≤ 0.2
93 | FKGG | ≤ 0.2
94 | RWGF | ≤ 0.2
95 | NFSV | ≤ 0.2
96 | IFNM | ≤ 0.2

Row | Variant | one-hybrid fitness for binding NBS DNA
97 | SCSV | ≤ 0.2
98 | RTER | 0.262
99 | QQES | 0.23
100 | TYRG | ≤ 0.2
101 | GMLC | ≤ 0.2
102 | AAIH | ≤ 0.2
103 | PLFI | ≤ 0.2
104 | ALSS | ≤ 0.2
105 | ARKA | ≤ 0.2
106 | PPQR | ≤ 0.2
107 | VSRR | ≤ 0.2
108 | RDHD | ≤ 0.2
109 | DDLC | ≤ 0.2
110 | HPGN | ≤ 0.2
111 | GCAM | ≤ 0.2
112 | TRFS | ≤ 0.2
113 | WINA | ≤ 0.2
114 | QDII | ≤ 0.2
115 | RCQF | ≤ 0.2
116 | LPEK | ≤ 0.2
117 | ALLD | ≤ 0.2
118 | PAVE | ≤ 0.2
119 | DPLV | ≤ 0.2
120 | LCLC | ≤ 0.2

Row | Variant | one-hybrid fitness for binding NBS DNA
121 | LLIS | ≤ 0.2
122 | HVLE | ≤ 0.2
123 | PSIT | ≤ 0.2
124 | TDSM | ≤ 0.2
125 | RYYG | ≤ 0.2
126 | MYAG | ≤ 0.2
127 | RVPM | ≤ 0.2
128 | QHTP | ≤ 0.2
129 | GMYG | ≤ 0.2
130 | AVGS | ≤ 0.2
131 | RQFT | 0.204
132 | PKTN | ≤ 0.2
133 | VEAN | ≤ 0.2
134 | RTEW | ≤ 0.2
135 | MIKC | ≤ 0.2
136 | TFQN | ≤ 0.2
137 | YRKI | ≤ 0.2
138 | RGGH | ≤ 0.2
139 | GNTS | ≤ 0.2
140 | KWHT | ≤ 0.2
141 | GGRC | ≤ 0.2
142 | WWKS | ≤ 0.2
143 | DYHV | ≤ 0.2
144 | GTSW | ≤ 0.2

Row | Variant | one-hybrid fitness for binding NBS DNA
145 | IYHY | ≤ 0.2
146 | FRQS | ≤ 0.2
147 | LHGD | ≤ 0.2
148 | RYVH | ≤ 0.2
149 | FALG | ≤ 0.2
150 | QLWY | ≤ 0.2
151 | TYAR | ≤ 0.2
152 | AGYK | ≤ 0.2
153 | KEKL | ≤ 0.2
154 | GYSY | ≤ 0.2
155 | QGED | ≤ 0.2
156 | GRDV | ≤ 0.2
157 | YRPY | ≤ 0.2
158 | SSFL | ≤ 0.2
159 | KIAW | ≤ 0.2
160 | TIRA | ≤ 0.2
161 | VPPD | ≤ 0.2
162 | RNQS | 0.281
163 | VWAG | ≤ 0.2
164 | RWDT | ≤ 0.2
165 | PGRF | ≤ 0.2
166 | EAYG | ≤ 0.2
167 | RYWI | ≤ 0.2
168 | KHRT | 0.266

Row | Variant | one-hybrid fitness for binding NBS DNA
169 | QYES | ≤ 0.2
170 | NQMG | ≤ 0.2
171 | RVCP | ≤ 0.2
172 | YQMY | ≤ 0.2
173 | APQI | ≤ 0.2
174 | PQHS | ≤ 0.2
175 | PWPA | ≤ 0.2
176 | YLST | ≤ 0.2
177 | FCQR | ≤ 0.2
178 | KLMV | ≤ 0.2
179 | MRML | ≤ 0.2
180 | RGKA | ≤ 0.2
181 | MIRR | ≤ 0.2
182 | GTQP | ≤ 0.2
183 | HKKH | ≤ 0.2
184 | NQRV | ≤ 0.2
185 | SQHF | ≤ 0.2
186 | VVTC | ≤ 0.2
187 | AYVM | ≤ 0.2
188 | PVAH | ≤ 0.2
189 | CKAL | ≤ 0.2
190 | CCVR | ≤ 0.2
191 | SLPW | ≤ 0.2
192 | NHLI | ≤ 0.2

Row | Variant | one-hybrid fitness for binding NBS DNA
193 | LVAS | ≤ 0.2
194 | THFT | ≤ 0.2
195 | APLT | ≤ 0.2
196 | RDRN | ≤ 0.2
197 | IYNR | ≤ 0.2
198 | VPMN | ≤ 0.2
199 | SARL | ≤ 0.2
200 | NMHG | ≤ 0.2
201 | HRYM | ≤ 0.2
202 | WQAG | ≤ 0.2
203 | RCKP | ≤ 0.2
204 | KDTY | ≤ 0.2
205 | TPGS | ≤ 0.2
206 | YLFC | ≤ 0.2
207 | MLTM | ≤ 0.2
208 | LWKC | ≤ 0.2
209 | TYDK | ≤ 0.2
210 | QGPE | ≤ 0.2
211 | MNAG | ≤ 0.2
212 | MDDG | ≤ 0.2
213 | WGQT | ≤ 0.2
214 | PSYS | ≤ 0.2
215 | RPHV | ≤ 0.2
216 | SALL | ≤ 0.2

Row | Variant | one-hybrid fitness for binding NBS DNA
217 | WVYD | ≤ 0.2
218 | ARIY | ≤ 0.2
219 | RNIA | ≤ 0.2
220 | TSDT | ≤ 0.2
221 | SMSS | ≤ 0.2
222 | RYYE | ≤ 0.2
223 | MYSS | ≤ 0.2
224 | WPYA | ≤ 0.2
225 | PSKD | ≤ 0.2
226 | RARQ | ≤ 0.2
227 | ADQE | ≤ 0.2
228 | WLVY | ≤ 0.2
229 | GGQH | ≤ 0.2
230 | HWGT | ≤ 0.2
231 | ESYG | ≤ 0.2
232 | RCFS | 0.411
233 | YNMN | ≤ 0.2
234 | ESND | ≤ 0.2
235 | SFTT | ≤ 0.2
236 | IKPT | ≤ 0.2
237 | ASMG | ≤ 0.2
238 | TMLC | ≤ 0.2
239 | RNDP | ≤ 0.2
240 | NENT | ≤ 0.2

Row | Variant | one-hybrid fitness for binding NBS DNA
241 | VSCL | ≤ 0.2
242 | FFIR | ≤ 0.2
243 | QVNE | ≤ 0.2
244 | DVKC | ≤ 0.2
245 | DLSH | ≤ 0.2
246 | QSYR | 0.458
247 | NAPR | ≤ 0.2
248 | NPCS | ≤ 0.2
249 | EAAT | ≤ 0.2
250 | RGYD | ≤ 0.2
251 | CRTH | ≤ 0.2
252 | RGWE | ≤ 0.2
253 | KLEV | ≤ 0.2
254 | WTFG | ≤ 0.2
255 | TEKS | ≤ 0.2
256 | WTTW | ≤ 0.2
257 | RRSR | 0.756
258 | EPSE | ≤ 0.2
259 | GVTC | ≤ 0.2
260 | LQNV | ≤ 0.2
261 | YEPR | ≤ 0.2
262 | NPGV | ≤ 0.2
263 | AWDM | ≤ 0.2
264 | ANNR | ≤ 0.2

Row | Variant | one-hybrid fitness for binding NBS DNA
265 | QSPT | 0.276
266 | PDKV | ≤ 0.2
267 | DKTS | ≤ 0.2
268 | FMKG | ≤ 0.2
269 | LSRK | ≤ 0.2
270 | TKDG | ≤ 0.2
271 | GQRF | ≤ 0.2
272 | PVSW | ≤ 0.2
273 | KAAP | ≤ 0.2
274 | LPIW | ≤ 0.2
275 | EHFC | ≤ 0.2
276 | HFAR | ≤ 0.2
277 | PLFL | ≤ 0.2
278 | HFCA | ≤ 0.2
279 | LRCS | ≤ 0.2
280 | CWTM | ≤ 0.2
281 | ECNS | ≤ 0.2
282 | WRRL | ≤ 0.2
283 | RFWK | ≤ 0.2
284 | YELK | ≤ 0.2
285 | SWMT | ≤ 0.2
286 | VAVT | ≤ 0.2
287 | EPRV | ≤ 0.2
288 | IKNF | ≤ 0.2

Row | Variant | one-hybrid fitness for binding NBS DNA
289 | SGCW | ≤ 0.2
290 | PNVS | ≤ 0.2
291 | HWHY | ≤ 0.2
292 | TYCR | ≤ 0.2
293 | QAVK | ≤ 0.2
294 | HRRA | ≤ 0.2
295 | FCHC | ≤ 0.2
296 | IKNK | ≤ 0.2
297 | CAWK | ≤ 0.2
298 | MKRG | ≤ 0.2
299 | HAPY | ≤ 0.2
300 | TLDQ | ≤ 0.2
301 | YMRR | ≤ 0.2
302 | NDEK | ≤ 0.2
303 | NHPF | ≤ 0.2
304 | PTEW | ≤ 0.2
305 | PKES | ≤ 0.2
306 | PLMD | ≤ 0.2
